Test results: the supplement of paper PMC11417369
± gives the standard deviation of the averaged measurements. Some of the results follow.

Test system: PfAP2-G AP2 domain (GST-tagged)
Assay: gcPBM binding intensity (ln(normalized median fluorescence intensity)); higher = stronger DNA binding
How it was run: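 Binding of GST-tagged P. falciparum DNA-binding domains, expressed in E. coli and used at about 25 μg on average, was carried out for 1 h in 1× PBS containing 1% milk, 0.2 mg/ml BSA, 0.5% salmon testes DNA and 0.03% Triton X-100. The target was an Agilent 4 × 180k array of primer-extended double-stranded 36-bp intergenic genomic probes plus negative controls, read with Alexa488 anti-GST antibody at 488 nm. Binding intensity is the highest Masliner-normalised natural-log median intensity across replicate spots of either probe orientation.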

Row | Sequence | gcPBM binding intensity (ln)
1 | AATGGGTAAACATACACACACACATATATATATATA [CACACA_site1991] | 10.1 ± 0.22
2 | ATATATACGTATGAATGTATATTTGTTTGAATTTTT [CACACA_negctrl_site524] | 9.965 ± 0.092
3 | AATAATAACATACAGACACACACGTAAAAGCACGTG [CACACA_site253] | 10.29 ± 0.064
4 | TTTATATATTAATATGCACACACAAGAAGTAATTAT [CACACA_site9045] | 10.4 ± 0.33
5 | TATTGCACAAAATAATTTTATTATACTTTATGTTAG [TGCATGCA_negctrl_site574] | 9.7 ± 0.22
6 | ATTTATAAAATTAATAGTACATATATTTATATATAT [XGTACX_site4173] | 11.1 ± 0.85
7 | TTTTTATGTAGAATTTTTTTATTTTTTCAAAATGGA [CACACA_negctrl_site166] | 9.695 ± 0.021
8 | ATTGTAATCATATGAAGTACTAATATATATTTTAAT [XGTACX_site8350] | 11 ± 0.7
9 | ATTTGGCATAGACACACACACACACGCACGCACATA [CACACA_site6424] | 10.5 ± 0.38
10 | TATGTTCATCATAGCACACATATATAAATTACAACA [CACACA_site3533] | 10.1 ± 0.16
11 | CAAAAATAAACTATAGTACACACTTATTATTATGAA [CACACA_site2702] | 11.3 ± 0.84
12 | AATGAAGAAAAAAAAAGTACATTATTTTTAAAACTT [XGTACX_site563] | 11.5 ± 0.91
13 | AATTTTAAAAATATAACACACATATATAAAATATAT [CACACA_site3610] | 9.92 ± 0.31
14 | ATTATAAATATGTATATACACACTTTTAATATTCAT [CACACA_site9367] | 10.04 ± 0.092
15 | AAGCAAACATATTAATGTACACACACCCACACACAA [XGTACX_site5806] | 11.4 ± 0.76
16 | TAAGATAAATGATAAAGTACTTTTTTTTTTTAAATA [XGTACX_site2326] | 11.3 ± 0.76
17 | TTTTAAATAAAATATTGTACATTAAAATTGTAATAT [XGTACX_site2128] | 11 ± 0.67
18 | AACAACTATTAATTTACACACATGTATTTATTTTAC [CACACA_site5683] | 10.1
19 | TCTTATATATTTATTTGTACATATATATATATATAT [XGTACX_site7214] | 10.9 ± 0.55

Row | Sequence | gcPBM binding intensity (ln)
20 | AATATATGCTTTCGTTATATTAAATTCAATTTAATG [GTGCAC_negctrl_site76] | 9.94 ± 0.11
21 | AATTGTCAGAGAATATGTACTTAAGTATTTATTGTT [XGTACX_site1947] | 11.2 ± 0.69
22 | ATAAAAAAATAAAACACACACATATATATTATATAT [CACACA_site2810] | 9.91 ± 0.014
23 | TAAATAAAAAAACACACACACATATATATATATATA [CACACA_site2269] | 9.99 ± 0.36
24 | AATGCATTGATTGCATTCAAAAAAAAAAAAAAAAAA [XGTACX_negctrl_site597] | 9.55 ± 0.36
25 | AATAAGATATCTACAACACACATTTAATTTTTTTTT [CACACA_site1641] | 9.54 ± 0.42
26 | AATCATAAAGAACATATAATATATATATATATATAT [CACACA_negctrl_site316] | 9.99 ± 0.76
27 | TTTGTCATAAGCAATGCATGTAAGTTTCTGACATTA [TGCATGCA_site1007] | 9.64 ± 0.014
28 | TGGGATAGATCATTTACACACACAAAAAAAAAAAAA [CACACA_site2140] | 9.93 ± 0.4
29 | TGTATTACGAAAAAATGTACAGAAAAAGAAACAAAA [XGTACX_site2777] | 11.2 ± 0.76
30 | AAAAACAACACAGATAAATTAACACACACACACATA [XGTACX_negctrl_site588] | 10.4 ± 0.47
31 | AAATATAGTATTAAAACACACATTTATATAAAAAGG [CACACA_site1482] | 10.02 ± 0.028
32 | TGAACTCATAGGAAAACACACATATGTGTAATATAT [CACACA_site4267] | 10.06 ± 0.092
33 | AACAAAAAAACAAACACACACACACGCATATTTATA [CACACA_site7680] | 10.03 ± 0.049
34 | CACGCATACAGACACACACACACACGGATATAAATA [CACACA_site6445] | 10.3 ± 0.37
35 | TATATACTCAGACATACACACAAATAAAAAAACACC [CACACA_site5820] | 10.7 ± 0.47
36 | TTATGTGATTTTAATTGTACATAAATATTTGTTAAC [XGTACX_site3489] | 11.1 ± 0.69
37 | GGTTCATTTATATGGAGTACAAAAAATATGTATATA [XGTACX_site8209] | 11.4 ± 0.88
38 | AAATAATATAAATACACACACACATATATAAATACA [CACACA_site4465] | 10.02 ± 0.057

Row | Sequence | gcPBM binding intensity (ln)
39 | ATATATATAATAAGTGGTACAAGTTATTCATTAAAT [XGTACX_site7063] | 11.3 ± 0.74
40 | CAATAAATCGAAATCGTGCACGGACACATGCAGTAG | 11.2 ± 0.71
41 | TTTTTTTATACAATTTTATATATTAAATATTATAAT [CACACA_negctrl_site226] | 9.765 ± 0.049
42 | AAAGAAAACGGACTTTGTACTTAAATATAATATAAA [XGTACX_site8585] | 11.2 ± 0.8
43 | TAAAGTTATATATTATGTACATATTTGTATACATTT [XGTACX_site2516] | 11.2 ± 0.73
44 | ACAAAAATATTATATTGTACATTATTAGTTCATATT [XGTACX_site6750] | 10.8 ± 0.48
45 | TTTTTATATAAATAATGTACATTTGGTTTTATTATA [XGTACX_site2125] | 10.9 ± 0.43
46 | AACACCCACAGACACACACACAAAAATGATTAAAAA [CACACA_site2433] | 10.3 ± 0.52
47 | TATTTGTATAAATAAAAATAATATATATCAAATAAC [CACACA_negctrl_site218] | 9.77 ± 0.028
48 | TATCAATTTTTCTGGCTATCCAATTAGGGGAAGCCA [CACACA_negctrl_site1045] | 9.78 ± 0.19
49 | TGTGTGTGTTCATGGGTGCTTTAATACTATTATAGG [GTGCAC_site9465] | 10.7 ± 0.57
50 | TATTATAAAAATATTCAGATACATTAACTTACTTTT [XGTACX_negctrl_site4] | 9.56 ± 0.28
51 | TATTTGCTACATATATGTACTAAAAACTTTTTGCTT [XGTACX_site2362] | 11.1 ± 0.58
52 | ATTTGCTCACAAGAAGCACACAAAAAAAGAAAAAAA [CACACA_site9338] | 10.1 ± 0.14
53 | CAAAAAATTTGACGTAGTACTTAAAAAAAAAAAAAA [XGTACX_site4523] | 11.1 ± 0.89
54 | AAGAAAATATAAAATGCACACTATAAATTGTATTTA [CACACA_site4257] | 9.83 ± 0.014
55 | TAATTATATATATATGCATGTTATAATTTTTATTTT [TGCATGCA_site78] | 9.54 ± 0.014
56 | ATATAAATAAACAGGTGTACTATAATGTTCATAGTA [XGTACX_site1553] | 11.2 ± 0.63
